Article PMC4336329 (PLoS ONE, 2015)
The campaign covered roughly 310,000 compounds. About 14,000 (4.5%) showed an effect of 50% or more. Effects have a minus sign here. The list shows a part of the results.

target: human ether-à-go-go-related gene (hERG) potassium channel (human, UniProt Q12809); assay: primary screen, population patch clamp on CHO cells stably expressing hERG
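Note: peak tail current of the secondary pulse compared with the same well before compound.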

Chain of human ether-à-go-go-related gene (hERG) potassium channel (Q12809 whole entry, looked up): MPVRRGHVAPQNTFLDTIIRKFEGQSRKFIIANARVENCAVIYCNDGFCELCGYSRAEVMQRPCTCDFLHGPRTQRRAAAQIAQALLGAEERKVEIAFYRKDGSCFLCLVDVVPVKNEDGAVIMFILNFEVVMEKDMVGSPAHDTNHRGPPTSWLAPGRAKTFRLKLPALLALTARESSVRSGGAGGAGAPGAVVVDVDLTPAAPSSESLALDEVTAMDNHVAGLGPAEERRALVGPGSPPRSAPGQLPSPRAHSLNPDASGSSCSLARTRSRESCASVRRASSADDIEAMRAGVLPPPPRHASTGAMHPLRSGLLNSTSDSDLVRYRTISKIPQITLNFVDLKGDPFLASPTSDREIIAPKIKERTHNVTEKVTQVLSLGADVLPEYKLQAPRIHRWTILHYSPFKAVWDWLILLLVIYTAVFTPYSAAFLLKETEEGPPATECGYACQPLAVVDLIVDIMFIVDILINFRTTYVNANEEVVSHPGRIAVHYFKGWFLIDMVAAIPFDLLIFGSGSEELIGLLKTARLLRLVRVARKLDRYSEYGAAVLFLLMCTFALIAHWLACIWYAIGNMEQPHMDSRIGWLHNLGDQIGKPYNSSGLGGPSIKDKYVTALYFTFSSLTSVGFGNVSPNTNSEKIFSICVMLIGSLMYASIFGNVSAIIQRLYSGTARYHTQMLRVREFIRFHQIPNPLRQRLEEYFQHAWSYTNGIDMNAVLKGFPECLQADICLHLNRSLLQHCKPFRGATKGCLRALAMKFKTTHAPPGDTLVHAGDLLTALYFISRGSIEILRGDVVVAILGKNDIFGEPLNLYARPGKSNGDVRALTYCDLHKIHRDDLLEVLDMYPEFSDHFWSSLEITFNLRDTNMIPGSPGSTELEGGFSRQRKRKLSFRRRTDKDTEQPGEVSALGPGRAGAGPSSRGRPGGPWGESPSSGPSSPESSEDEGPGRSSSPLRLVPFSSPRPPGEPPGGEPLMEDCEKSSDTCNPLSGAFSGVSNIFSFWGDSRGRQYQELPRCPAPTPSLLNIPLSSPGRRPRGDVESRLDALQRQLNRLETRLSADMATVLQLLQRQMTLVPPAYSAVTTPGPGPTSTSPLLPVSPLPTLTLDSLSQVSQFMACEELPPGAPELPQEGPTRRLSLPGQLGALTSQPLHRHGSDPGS

Structure (SMILES)	hERG current change (%, negative = inhibition) at 10uM [%]
Cc1c(/C=C/C(=O)c2ccc(O)cc2)cnn1C	-3.92
Cc1ccc(NC(=O)CN(C)CC(=O)Nc2ccccc2C#N)cc1	-11.3
C=CCNC(=O)COC(=O)COc1ccc(Cl)cc1	7.19
Cc1sc2nc(C3CC3)nc(N3CCN(C(=O)c4ccc(Cl)cc4)CC3)c2c1C.Cl	-57.1
CCOC(=O)N1CCN(CCC(=O)Nc2ccc(C)cc2)CC1	4.65
O=C(NC1CCSc2ccccc21)c1ccccc1Cl (centres unmarked)	10.7
C=CCn1c(SCC(C)=O)nnc1-c1cc(-c2ccccc2)sc1N	-33.3
COc1ccc(CCNC(=O)/C=C/c2ccco2)cc1	-3.43
Cn1nccc1C(=O)NC(=S)Nc1cc(Cl)cc(Cl)c1	4.84
CC(OC(=O)CCCN=C1NS(=O)(=O)c2ccccc21)C(=O)Nc1ccccc1F (centres unmarked)	-4.71
CCOc1cc(C(=S)N2CCOCC2)ccc1OS(=O)(=O)c1ccc(Br)cc1	-1.54
CON/C=C(\C=Nc1ccc(Cl)cc1)c1ncc(C(F)(F)F)cc1Cl	1.78
O=C(NC1CCCC1)C1CCN(C(=O)c2cccc(Cl)c2)CC1	-6.41
O=C(Nc1ccc(F)cc1F)NC1CCCc2ccccc21 (centres unmarked)	-25.9
Cc1ccc2nc(NC(=O)C(NS(=O)(=O)c3cccc4nsnc34)C(C)C)sc2c1 (centres unmarked)	-3.95
COc1cc(OC)cc(C(=O)Nc2ccc(C(=O)NCC3CCCO3)cc2)c1 (centres unmarked)	5.04
COc1cccc(NC(=O)C(c2ccccc2)N2CCN(CC(=O)N3CCOCC3)CC2)c1 (centres unmarked)	-36.8
CC1Cc2ccccc2N1C(=O)C1CCN(S(=O)(=O)Cc2ccccc2)CC1 (centres unmarked)	6.61
C[C@H](O)CC1=C[C@H](O)[C@@H](C)OC1=O	-6.25

Structure (SMILES)	hERG current change (%, negative = inhibition) at 10uM [%]
N#Cc1c(N2CCOCC2)nsc1-c1ccccc1	6.68
CC(C)(C)c1ccc(/C=N/Nc2nncn2N)cc1	-21.5
Cc1c(Cc2ccccc2)c(=O)oc2c(C)c(OC(C)C(=O)N[C@@H](Cc3ccccc3)C(=O)O)ccc12 (some centres unmarked)	4.54
CC(C(=O)NC1=NCCS1)N1C(=O)c2ccccc2C1=O (centres unmarked)	4.04
NC(=O)C1(N2CCCCC2)CCN(S(=O)(=O)c2ccccc2)CC1	-22.2
O=S(=O)(NC1c2cccc3cccc(c23)C1Sc1ncccn1)c1ccccc1 (centres unmarked)	29.1
O=C(c1ccc(S(=O)(=O)N2CCCC2)cc1)N1CCCCCC1	-1.88
N#Cc1ccccc1Cn1cc(C(=O)c2cccs2)c2ccccc21	11.9
CCSc1nnc(-c2cccnc2)n1Cc1ccco1	-7.73
CCc1cc2c(C)ccc(C)c2nc1SCC(=O)Nc1cc(C)on1	6.86
COc1ccc(NC(=O)C2CCN(C(=O)Nc3ccccc3)CC2)cc1S(=O)(=O)N(C)C	12.5
O=C(COC(=O)Cc1n[nH]c(=O)c2ccccc12)NNC(=O)c1ccccc1	5.8
CC(=O)/C(=N/Nc1ccc(C)cc1)Sc1nnc(CCc2ccccc2)n1-c1ccccc1	-10.7
COc1cccc(-c2cc(CC3(O)CCN(CCCc4ccccc4)CC3)on2)c1	-89.1
O=C(CN1C(=O)c2ccccc2S1(=O)=O)Nc1ccc(S(=O)(=O)N2CCCCC2)cc1	0.41
CN(C)C(=S)Nc1ccc(Br)cc1Cl	9.09
C#CCOCCOCCOCCNc1nc(N2CCN(C(=O)[C@H]([C@@H](C)CC)n3cc([C@@H](N)CC(C)C)nn3)CC2)nc(N2CCN(C(=O)[C@H](CCCCN)n3cc([C@@H](N)CO)nn3)CC2)n1.Cl	10.1
O=S(=O)(Nc1nnc(C2CCCCC2)s1)c1ccc(F)cc1	-42
O=C(NCCNC(=O)c1ccccn1)c1ccccc1	11.7

Structure (SMILES)	hERG current change (%, negative = inhibition) at 10uM [%]
COc1cc(NC(=O)Cc2c(C(=O)O)[nH]c3ccccc23)cc(OC)c1OC	-4.08
COc1ccc(-c2nnc(N3CCCCC3)c3ccccc23)cc1	-47.3
O=C(Nc1ccc(Cl)cc1C(=O)c1ccccc1)c1ccccc1	3.76
Cc1ccc(-c2c[n+](CC(=O)Nc3ccccc3C)c3n2CCC3)cc1.[Cl-]	-5.42
Cc1cc(/C=C2/SC(=O)N(CC(=O)N3CCCC3)C2=O)c(C)n1C	-5.16
O=C1C2CCCCN2C(=O)N1CCCCN1CCN(c2ccc(F)cc2)CC1 (centres unmarked)	-44
O=C(CC(=O)c1ccccc1)Nc1cccnc1	15.7
CCc1nnc(NC(=O)CN2CCN(c3ccccc3F)CC2)s1.Cl	-12.9
CN(C)c1ccc(/C=N/N=C(N)N)cc1[N+](=O)[O-]	-13
COc1ccc(/C=C/C(=O)Nc2c(C(=O)O)[nH]c3ccccc23)cc1OC	11.9
COc1ccc(N(CC(=O)NCc2cccs2)S(=O)(=O)c2cccnc2)cc1	-8.69
O=C(/C=C/c1c(Cl)nc2ccccn12)N1CCN(c2ccccc2F)CC1	-5.92
CC(=O)Oc1ccc(-c2nc3c(C)cccc3c(=O)o2)cc1	19
COC(=O)c1ccc(COc2ncnc3c(Cl)cc(Cl)cc23)o1	-6.83
CC(C)NC(=O)CSCc1c(Cl)cccc1Cl	-10.5
COc1ccccc1NC(C)C(=O)Nc1ccc(C(C)=O)cc1 (centres unmarked)	-7.13
COc1cccc(Nc2nc(N)c([N+](=O)[O-])c(NCc3ccccc3)n2)c1	6.25
COCCN(C(=O)COC(=O)CC(C)c1ccccc1)c1c(N)n(Cc2ccccc2)c(=O)[nH]c1=O (centres unmarked)	11.7
